{"source": "paper PMC10290124", "biological_target": "full-length wild-type human TRPV4 (human) (UniProt Q9HBA0)", "assay": "cryo-EM structure; hTRPV4 purified from HEK 293S cells in GDN (20 mM Tris pH 8.0, 150 mM NaCl, 1 mM βME, 0.01% GDN) with endogenous RhoA carried along; apo state, no added ligands; grids frozen at 22 °C", "data": [{"substance": "full-length wild-type human TRPV4 (a stretch of the chain, letters omitted) (natural protein; other documents disagree on this pair)", "values": [{"measurement": "stoichiometry N", "value": 4, "unit": "subunits"}]}]}
